For 32 sequences, binding signal results are on record in article PMC12820563, “FoxP3 forms a head-to-head dimer in vivo and stabilizes its multimerization on adjacent microsatellites”.

The list shows a part of the results.

The target of the assay is T1, MBP-FoxP1dN (Mus musculus, UniProt P58462 326-579).
T1 sequence: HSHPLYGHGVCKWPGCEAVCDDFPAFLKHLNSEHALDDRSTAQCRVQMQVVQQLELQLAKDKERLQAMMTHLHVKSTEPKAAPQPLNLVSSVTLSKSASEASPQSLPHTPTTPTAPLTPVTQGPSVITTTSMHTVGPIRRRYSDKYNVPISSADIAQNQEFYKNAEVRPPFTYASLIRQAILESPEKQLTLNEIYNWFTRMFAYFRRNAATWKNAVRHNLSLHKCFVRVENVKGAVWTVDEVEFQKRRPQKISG
The assay is described as follows: PD-seq (MBP pull-down with sequencing); 20 mM Tris-HCl pH 7.5, 100 mM NaCl, 1.5 mM MgCl2, 0.4 uM protein, 0.1 uM dsDNA library, 30 min, room temperature, amylose pull-down; high values mean tight binding. The note with it: protein: recombinant; tags: His6-MBP; chain copies: 2; dsDNA, one strand shown. The method, boiled down:
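Protein and DNA were mixed at 0.4 µM and 0.1 µM and held for 30 min at room temperature in Tris pH 7.5 buffer with NaCl and MgCl2; the protein was a His6-MBP-tagged, N-terminally truncated mouse FoxP3 or FoxP1 fragment from E. coli, and the DNA a Klenow-filled double-stranded degenerate library. Amylose resin captured the complexes, which were washed three times. Binding is read as reads-per-million enrichment of pull-down versus input after Illumina sequencing, with replicates pooled.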
“GATGATTGTTCTCCCAGCTGATGAATTGTCTGAATCGAGTAAACAAATTTTCCTAATCTTTCTGTTCAAGCGCCATCTAC”: the binding signal is 1.05 RPM ratio (pull-down/input).

Take “GATGATTGTTCTCCCAGCTGATGAATTCTTTTATTCGAGTAAACAAATTTTCCTAATCTTTCTGTTCAAGCGCCATCTAC”: the binding signal was 1.13 RPM ratio (pull-down/input). Then “GATGATTGTTCTCCCAGCTGATGAATTAGTTACGTCGAGTAAACAAATTTTCCTAATCTTTCTGTTCAAGCGCCATCTAC”, with 1.06 RPM ratio (pull-down/input); and “GATGATTGTTCTCCCAGCTGATGAATTTCGAACATCGAGTAAACAAATTTTCCTAATCTTTCTGTTCAAGCGCCATCTAC”, with 1.02 RPM ratio (pull-down/input); and “GATGATTGTTCTCCCAGCTGATGAATTATCATAGTCGAGTAAACAAATTTTCCTAATCTTTCTGTTCAAGCGCCATCTAC”, with 1.06 RPM ratio (pull-down/input). The same measure for “GATGATTGTTCTCCCAGCTGATGAATTTGTATTTTCGAGTAAACAAATTTTCCTAATCTTTCTGTTCAAGCGCCATCTAC”: 2.62 RPM ratio (pull-down/input).

Turning to “GATGATTGTTCTCCCAGCTGATGAATTCTATGATTCGAGTAAACAAATTTTCCTAATCTTTCTGTTCAAGCGCCATCTAC”, the binding signal is 1.06 RPM ratio (pull-down/input). The same measure for “GATGATTGTTCTCCCAGCTGATGAATTGACCAGTTCGAGTAAACAAATTTTCCTAATCTTTCTGTTCAAGCGCCATCTAC”: 0.899 RPM ratio (pull-down/input); for “GATGATTGTTCTCCCAGCTGATGAATTGACGAGTTCGAGTAAACAAATTTTCCTAATCTTTCTGTTCAAGCGCCATCTAC”: 1.04 RPM ratio (pull-down/input). Then “GATGATTGTTCTCCCAGCTGATGAATTTCAAGGTTCGAGTAAACAAATTTTCCTAATCTTTCTGTTCAAGCGCCATCTAC”, with 0.838 RPM ratio (pull-down/input); and “GATGATTGTTCTCCCAGCTGATGAATTTTTTTGATCGAGTAAACAAATTTTCCTAATCTTTCTGTTCAAGCGCCATCTAC”, with 0.955 RPM ratio (pull-down/input); and “GATGATTGTTCTCCCAGCTGATGAATTATTATTATCGAGTAAACAAATTTTCCTAATCTTTCTGTTCAAGCGCCATCTAC”, with 2.52 RPM ratio (pull-down/input). Then “GATGATTGTTCTCCCAGCTGATGAATTGAACTCCTCGAGTAAACAAATTTTCCTAATCTTTCTGTTCAAGCGCCATCTAC”, with 0.753 RPM ratio (pull-down/input); and “GATGATTGTTCTCCCAGCTGATGAATTTAACGTCTCGAGTAAACAAATTTTCCTAATCTTTCTGTTCAAGCGCCATCTAC”, with 0.873 RPM ratio (pull-down/input). Take “GATGATTGTTCTCCCAGCTGATGAATTAACACTCTCGAGTAAACAAATTTTCCTAATCTTTCTGTTCAAGCGCCATCTAC”: the binding signal was 1.02 RPM ratio (pull-down/input). “GATGATTGTTCTCCCAGCTGATGAATTTTATAACTCGAGTAAACAAATTTTCCTAATCTTTCTGTTCAAGCGCCATCTAC”: the binding signal was 0.929 RPM ratio (pull-down/input). With “GATGATTGTTCTCCCAGCTGATGAATTGCGAACTTCGAGTAAACAAATTTTCCTAATCTTTCTGTTCAAGCGCCATCTAC”, the binding signal is 1.04 RPM ratio (pull-down/input). “GATGATTGTTCTCCCAGCTGATGAATTTTTATGTTCGAGTAAACAAATTTTCCTAATCTTTCTGTTCAAGCGCCATCTAC”: the binding signal was 1.37 RPM ratio (pull-down/input). On to “GATGATTGTTCTCCCAGCTGATGAATTGTCCATATCGAGTAAACAAATTTTCCTAATCTTTCTGTTCAAGCGCCATCTAC”, for which the binding signal was 1.1 RPM ratio (pull-down/input). The same measure for “GATGATTGTTCTCCCAGCTGATGAATTTATCGACTCGAGTAAACAAATTTTCCTAATCTTTCTGTTCAAGCGCCATCTAC”: 0.927 RPM ratio (pull-down/input). As for “GATGATTGTTCTCCCAGCTGATGAATTTAAGATATCGAGTAAACAAATTTTCCTAATCTTTCTGTTCAAGCGCCATCTAC”, the binding signal was 0.873 RPM ratio (pull-down/input). Consider “GATGATTGTTCTCCCAGCTGATGAATTCAGGCACTCGAGTAAACAAATTTTCCTAATCTTTCTGTTCAAGCGCCATCTAC”, for which the binding signal was 0.819 RPM ratio (pull-down/input).

As to “GATGATTGTTCTCCCAGCTGATGAATTTGATCCGTCGAGTAAACAAATTTTCCTAATCTTTCTGTTCAAGCGCCATCTAC”, the binding signal was 0.802 RPM ratio (pull-down/input). Take “GATGATTGTTCTCCCAGCTGATGAATTCTTCAATTCGAGTAAACAAATTTTCCTAATCTTTCTGTTCAAGCGCCATCTAC”: the binding signal is 0.916 RPM ratio (pull-down/input). As for “GATGATTGTTCTCCCAGCTGATGAATTTCATCGATCGAGTAAACAAATTTTCCTAATCTTTCTGTTCAAGCGCCATCTAC”, the binding signal is 0.956 RPM ratio (pull-down/input). On to “GATGATTGTTCTCCCAGCTGATGAATTCACATTGTCGAGTAAACAAATTTTCCTAATCTTTCTGTTCAAGCGCCATCTAC”, for which the binding signal was 0.901 RPM ratio (pull-down/input).

Regarding “GATGATTGTTCTCCCAGCTGATGAATTATAACCATCGAGTAAACAAATTTTCCTAATCTTTCTGTTCAAGCGCCATCTAC”, the binding signal is 1.04 RPM ratio (pull-down/input).

“GATGATTGTTCTCCCAGCTGATGAATTGTTTGGATCGAGTAAACAAATTTTCCTAATCTTTCTGTTCAAGCGCCATCTAC”: the binding signal was 1.65 RPM ratio (pull-down/input). “GATGATTGTTCTCCCAGCTGATGAATTTTAACAGTCGAGTAAACAAATTTTCCTAATCTTTCTGTTCAAGCGCCATCTAC”: the binding signal was 0.923 RPM ratio (pull-down/input).

Take “GATGATTGTTCTCCCAGCTGATGAATTTCCCGGGTCGAGTAAACAAATTTTCCTAATCTTTCTGTTCAAGCGCCATCTAC”: the binding signal was 0.761 RPM ratio (pull-down/input). Consider “GATGATTGTTCTCCCAGCTGATGAATTTGTACAGTCGAGTAAACAAATTTTCCTAATCTTTCTGTTCAAGCGCCATCTAC”, for which the binding signal is 1.07 RPM ratio (pull-down/input).

Consider “GATGATTGTTCTCCCAGCTGATGAATTCATTACCTCGAGTAAACAAATTTTCCTAATCTTTCTGTTCAAGCGCCATCTAC”, for which the binding signal is 0.933 RPM ratio (pull-down/input).
